{"source": "PubChem BioAssay AID1347417", "about": "(National Center for Advancing Translational Sciences (NCATS), 2020)", "note": "Hit rate of the full screen: of about 120,000 compounds, about 5,300 (4.4%) were called active. This list was built around the results that the source calls inconclusive (neither active nor inactive); the mix of calls is not that of the screen. The call rests on the fitted dose curve; in most records, active means well fitted inhibition curve with a large enough effect; inconclusive means small, poorly fitted or top-dose-only effect; inactive means no such curve, though single readings can be large or run the other way. Potencies of inconclusive entries are doubtful fits and often do not repeat. Potency means the concentration at half of the fitted maximal effect; tags describe the fitted curve by direction and shape.", "data": [{"assay": "qHTS Primary assay for Inhibitors of Plasmodium falciparum Dd2 growth in vitro; further: nearly all actives have a fitted effect of over 65% in size;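 on activity, negative = inhibition: plate controls were DMSO vehicle for no effect and reference drug for full effect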", "settings": "P. falciparum Dd2 growth, SYBR Green, 72 h; activity, negative = inhibition: at 28.9 µM (top of the series) unless noted; series mostly up to 28.9 µM", "outline": "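Infected erythrocytes (Dd2, 0.3% parasitemia, 2.5% hematocrit final) are added to compound in RPMI-1640/Albumax II medium, grown 72 h at 37C in low oxygen, then lysed with saponin/Triton-X containing SYBR Green and read by fluorescence.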", "values": [{"smiles": "COc1ccc(C(=O)NC(C)c2nncn2C)cc1OC1CCN(C(C)=O)CC1", "note": "(stereo not drawn)", "activity, negative = inhibition": "inactive: -19.9%"}, {"smiles": "COc1cccc(NC(=O)c2ccc3c(c2)CCN3S(C)(=O)=O)c1", "activity, negative = inhibition": "inactive: 20.8%"}, {"smiles": "COc1ccc(CC(=O)N2C[C@@H](CO)[C@H](c3nc(C)no3)C2)cc1", "activity, negative = inhibition": "inactive: 11.5%"}, {"smiles": "O=C(O)C1=NOC2CN(Cc3ccc(F)cc3)CC12", "note": "(stereo not drawn)", "activity, negative = inhibition": "inactive: 17.9% [at 44.1 µM]"}, {"smiles": "CSCC(=O)N[C@H]1CCN2C(=O)c3ccc(Cl)cc3NC(=O)[C@H]12", "activity, negative = inhibition": "inactive: 0.682% [at 44.1 µM]"}, {"smiles": "COCC1CN(Cc2cc(Br)ccc2OC)CC12CCNCC2", "note": "(stereo not drawn)", "Potency": "inconclusive: 3.16 µM [inhibitor, full curve, poor fit]"}, {"smiles": "COc1cccc(-c2nnc(-c3ccccc3NC(=O)c3ccc(F)cc3F)o2)c1", "activity, negative = inhibition": "inactive: 46.4%"}, {"smiles": "O=C(Nc1ccccc1)Nc1ccc(=O)n2c1[C@@H]1C[C@@H](CN(C(=O)COc3ccccc3)C1)C2", "Potency": "inconclusive: 3.55 µM [inhibitor, partial curve, poor fit]"}, {"smiles": "CC(C)Cc1ccc(S(=O)(=O)N2CCN(Cc3noc(CCC(=O)N4CCCCC4)n3)CC2)cc1", "Potency": "inconclusive: 17.8 µM [inhibitor, single point]"}, {"smiles": "COc1ccc(-c2nc(C3CC(=O)N(c4ccc(OC)c(OC)c4)C3)no2)c(OC)c1", "note": "(stereo not drawn)", "Potency": "inconclusive: 12.6 µM [inhibitor, single point]"}, {"smiles": "Cc1nn(C)c2nc(-c3ccccn3)nc(N3CCC4(CC3)COC(=O)O4)c12", "Potency": "inconclusive: 0.178 µM [inhibitor, full curve, poor fit]"}, {"smiles": "COc1ccc(C)cc1NC(=O)NC(C)c1c(-n2cccc2)sc(C)c1C", "note": "(stereo not drawn)", "Potency": "inconclusive: 7.08 µM [inhibitor, partial curve, poor fit]"}, {"smiles": "CCN(CC)CCCNc1sc(S(=O)(=O)c2ccccc2)nc1S(=O)(=O)c1ccc(Cl)cc1", "Potency": "active: 5.62 µM"}, {"smiles": "CCN(C(=O)c1sc2nc3n(c(=O)c2c1C)CCCCC3)c1ccc(OC)cc1", "activity, negative = inhibition": "inactive: -7.68%"}, {"smiles": "O=C1NCN(Cc2ccc(Cl)cc2)C12CCN(CC1CCCCC1)CC2", "Potency": "inconclusive: 2.24 µM [inhibitor, partial curve, poor fit]"}, {"smiles": "Cc1cccc(OCCc2noc(C3CN(C(=O)C(C)C)C3)n2)c1", "Potency": "inconclusive: 17.8 µM [inhibitor, single point]"}, {"smiles": "CC(C)CCN1CCCC2(CC(c3cccnc3)=NO2)C1", "note": "(stereo not drawn)", "Potency": "inconclusive: 31.6 µM [inhibitor, single point]"}, {"smiles": "CO[C@H]1C(=O)N(C(C)C)[C@H]1C1CCN(Cc2ccc(C)s2)CC1", "Potency": "inconclusive: 5.62 µM [inhibitor, partial curve]"}, {"smiles": "CSc1cccc(NC(=O)CN2C(=O)NC3(CCS(=O)(=O)CC3)C2=O)c1", "activity, negative = inhibition": "inactive: 20.6%"}, {"smiles": "Cc1ccc(C)c(C(=O)N2CCC3(CC2)NC(=O)N(c2ccc(F)cc2)N3)c1", "activity, negative = inhibition": "inactive: -14%"}, {"smiles": "Fc1ccc(Nc2ncnc3onc(-c4ccc(Cl)cc4)c23)cc1Cl", "Potency": "inconclusive: 17.8 µM [inhibitor, single point]"}, {"smiles": "COc1cc(OC)c(NC(=O)Nc2cccc(OCc3cc(=O)n4ccccc4n3)c2)cc1Cl", "Potency": "inconclusive: 17.8 µM [inhibitor, single point]"}, {"smiles": "CCN1CCCC2(Cc3ccccc3CN([S+](=O)([O-])c3ccccc3)C2)C1", "note": "(stereo not drawn)", "Potency": "inconclusive: 3.55 µM [inhibitor, partial curve, poor fit]"}, {"smiles": "CCn1c(C)c(C)c2cc(C(=O)NCc3ccc(F)cc3)ccc21", "outcome": "inactive"}, {"smiles": "COc1ccc(-n2cc(-c3ccccc3)c3c(Nc4ccc(OC)c(OC)c4)ncnc32)cc1", "activity, negative = inhibition": "inactive: -19.1%"}, {"smiles": "Cn1ccnc1CNC(=O)CC(c1cccc(O)c1)c1ccccc1Cl", "note": "(stereo not drawn)", "Potency": "inconclusive: 20 µM [inhibitor, single point]"}, {"smiles": "COc1ccccc1CN1CCNc2cnc(-c3ccccc3)cc2C1", "Potency": "inconclusive: 31.6 µM [inhibitor, single point]"}, {"smiles": "CCOC(=O)c1ccc2c(c1)N(Cc1ccc(F)cc1Cl)C(=O)c1ccccc1S2(=O)=O", "Potency": "inconclusive: 11.2 µM [inhibitor, single point]"}, {"smiles": "CC(C)(O)c1cn(C[C@H]2C[C@@H]3CCN2C[C@@H]3C(=O)NCc2ccc(F)cc2)nn1", "activity, negative = inhibition": "inactive: -12.1% [at 44.1 µM]"}, {"smiles": "CNC(=O)N1CCC(C2CCN(Cc3cccc(OC)c3OC)C2)CC1", "note": "(stereo not drawn)", "Potency": "inconclusive: 8.91 µM [inhibitor, single point]"}, {"smiles": "CCOc1cc2c(cc1OCC)C(CC(=O)O)N(C(=O)Nc1ccccc1C(F)(F)F)CC2", "note": "(stereo not drawn)", "activity, negative = inhibition": "inactive: 27.2%"}, {"smiles": "O=C(NCCN1CCC(Cc2ccccc2)CC1)C1(CCO)CC12CCOCC2", "note": "(stereo not drawn)", "Potency": "inconclusive: 11.2 µM [inhibitor, single point]"}, {"smiles": "Cc1cc(C(=O)N2CCC3(CC2)CC(CC(=O)NCc2ccccc2)CCO3)n[nH]1", "note": "(stereo not drawn)", "Potency": "inconclusive: 15.8 µM [inhibitor, single point]"}, {"smiles": "O=C(CCc1cccc(F)c1)N1CCN(Cc2ccccc2)CC(O)C1", "note": "(stereo not drawn)", "Potency": "inconclusive: 17.8 µM [inhibitor, single point]"}, {"smiles": "O=C(c1ccccn1)N1CCC(c2nc(-c3cccnn3)no2)CC1", "activity, negative = inhibition": "inactive: 2.94%"}, {"smiles": "O=C(OCc1ccccc1)N1CCOCC12CCN(Cc1ncccn1)CC2", "activity, negative = inhibition": "inactive: -4.07% [at 44.1 µM]"}, {"smiles": "O=C(Cn1c(=O)oc2cc(S(=O)(=O)N3CCCCC3)ccc21)NCc1ccc(Cl)cc1", "Potency": "inconclusive: 3.55 µM [inhibitor, full curve]"}, {"smiles": "CN(Cc1ccc(-c2ccccc2)cc1)S(C)(=O)=O", "activity, negative = inhibition": "inactive: -0.143% [at 44.1 µM]"}, {"smiles": "COc1ccc2nc(C)cc(Nc3ccc(Cl)c(Cl)c3)c2c1", "Potency": "active: 1 µM"}, {"smiles": "COc1ccccc1CCC(=O)N1CCCN(c2cc(-c3ccc(Cl)cc3)[nH]n2)CC1", "Potency": "inconclusive: 1 µM [inhibitor, full curve]"}, {"smiles": "CCCOc1ccccc1C(=O)N1CCc2onc(-c3ccccc3)c2C1", "Potency": "inconclusive: 20 µM [inhibitor, single point]"}, {"smiles": "CC(c1ccon1)N(C)C(=O)c1ccc(OC2CCN(S(=O)(=O)N(C)C)CC2)cc1", "note": "(stereo not drawn)", "activity, negative = inhibition": "inactive: -15.3%"}, {"smiles": "O=C(c1ccoc1)N1CCC(O)(c2ccccc2)[C@H](N2CCCC2)C1", "note": "(stereo partly drawn)", "Potency": "inconclusive: 1 µM [inhibitor, partial curve, poor fit]"}, {"smiles": "CCn1c(=O)c2cc(C(=O)NCCCN3CCC(C)CC3)sc2c2ccccc21", "outcome": "inactive"}, {"smiles": "COc1cccc(-c2nn(-c3ccccc3)c(OC(C)=O)c2-c2ccc(NC(=O)c3ccco3)cc2)c1", "Potency": "inconclusive: 0.708 µM [inhibitor, full curve]"}, {"smiles": "COc1ccc2nc([C@H]3CCN(C(=O)c4ccccc4)C3)[nH]c2c1", "Potency": "inconclusive: 3.98 µM [inhibitor, partial curve, poor fit]"}, {"smiles": "COc1ccc(-c2onc(C)c2C)cc1S(=O)(=O)NCC1CCN(Cc2cc(C)ccc2C)CC1", "Potency": "active: 11.2 µM"}, {"smiles": "CN(Cc1cccnc1)Cc1nc(C2(O)CCN(Cc3ccc(F)cc3)CC2)cs1", "outcome": "inactive [at 44.1 µM]"}, {"smiles": "Fc1ccc2oc([C@H]3CCN(Cc4ccc(F)c(F)c4)C3)nc2c1", "Potency": "inconclusive: 11.2 µM [inhibitor, single point]"}, {"smiles": "CCCCc1cc(C[C@H]2CNCC[C@H]2CC(=O)Nc2nccs2)no1", "Potency": "inconclusive: 31.6 µM [inhibitor, single point]"}, {"smiles": "COc1ccc(OC)c(CN2CCC3OCCN(Cc4ccccc4F)C(=O)C3C2)c1", "note": "(stereo not drawn)", "Potency": "inconclusive: 10 µM [inhibitor, partial curve]"}, {"smiles": "COc1ccccc1Nc1nn2c(=O)c3ccc(C(=O)NCCC4=CCCCC4)cc3nc2s1", "Potency": "inconclusive: 11.2 µM [inhibitor, single point]"}, {"smiles": "CCC(=O)N1CCCC(c2nc(-c3ccc4nc[nH]c4c3)no2)C1", "note": "(stereo not drawn)", "Potency": "inconclusive: 17.8 µM [inhibitor, partial curve, poor fit]"}, {"smiles": "CCCN(CCC)C(=O)[C@@]12CCCC[C@H]1N(CCC(C)C)C(=O)CC2", "Potency": "active: 10 µM"}, {"smiles": "Cn1cnc(S(=O)(=O)N2CCC3(CC2)CC(OCC2CC2)CCO3)c1", "note": "(stereo not drawn)", "activity, negative = inhibition": "inactive: 0.0821%"}, {"smiles": "CCCSCCCNC(=O)c1ccc2c(c1)sc1nc(-c3ccc(OCC)cc3)cn12", "Potency": "active: 3.55 µM"}, {"smiles": "O=C(c1cc(F)ccc1Cl)N1CCC2(CC1)N(c1ccccc1)C(=O)CS2(=O)=O", "Potency": "inconclusive: 5.62 µM [inhibitor, partial curve]"}, {"smiles": "COc1ccc(Nc2ncnc3c2cnn3-c2ccc(C)cc2)cc1Cl", "Potency": "inconclusive: 10 µM [inhibitor, single point]"}, {"smiles": "COc1cc(NC(=O)c2ccc(-c3ncn[nH]3)cc2)ccc1NC(=O)C(C)(C)C", "Potency": "inconclusive: 8.91 µM [inhibitor, partial curve]"}, {"smiles": "COc1c(C)cccc1C(=O)N1CCOC(c2ccc(Cl)c(Cl)c2)C1", "note": "(stereo not drawn)", "activity, negative = inhibition": "inactive: -7.13%"}, {"smiles": "OC[C@@H]1CN(CC2CC2)C[C@H]1c1nc(-c2ccncc2)no1", "activity, negative = inhibition": "inactive: -0.156%"}, {"smiles": "O=C(c1ccccc1F)N1CCn2c(nnc2-c2ccc(Cl)cc2)C1", "activity, negative = inhibition": "inconclusive: -48.2% [inhibitor]"}, {"smiles": "CCC(=O)N1CCc2cc(Br)cc(S(=O)(=O)CCC(=O)NCc3cccc(OC)c3)c21", "Potency": "inconclusive: 17.8 µM [inhibitor, single point]"}, {"smiles": "CS(=O)(=O)c1ccc(CN2CCC[C@H]2c2nc(-c3ccnc(N4CCOCC4)c3)no2)cc1", "Potency": "inconclusive: 10 µM [inhibitor, single point]"}, {"smiles": "COc1ccc(C(=O)N2CCCC(c3noc(COc4ccccc4F)n3)C2)cc1OC", "note": "(stereo not drawn)", "Potency": "inconclusive: 20 µM [inhibitor, partial curve, poor fit]"}, {"smiles": "CCCNC(=O)N1CCn2nnc(CCC(=O)N3CCOCC3)c2C1", "Potency": "inconclusive: 1.12 µM [inhibitor, partial curve, poor fit]"}, {"smiles": "COCCNc1oc(/C=C/c2ccc(F)cc2)nc1C#N", "Potency": "inconclusive: 12.6 µM [inhibitor, single point]"}, {"smiles": "Cc1cc(C)cc(-n2c(SCC(N)=O)nc3c([nH]c4ccccc43)c2=O)c1", "Potency": "inconclusive: 7.94 µM [inhibitor, single point]"}]}]}
